From the RNAGym collection of RNA variant scans (doi:10.7554/elife.90254)
The source gives no read counts; variants with many changes may rest on few reads.

B1: OR4K15 (parent)
chain: GUUAACGGUCAUAGGCCAUGGAAACUAGGAGCACCAUUUCGCUGCCAGUGAAGAAAUGAACAAAGAAAAUCUGGGCCAGGCAGGCAUCAAAAGAAAUAGUCUUGCGCUCAACCAGAAAGUCUGUAAUCAUUUUAAGGGUA

Variants of: B1
Assay: self-cleavage, relative activity (ratio to wild type); higher = more cleavage; in vitro, sequencing; the parent is a self-cleaving ribozyme

| Variant | self-cleavage |
| --- | --- |
| A22G A30G A78G A91C U108C | 0.07 |
| U9C A36U U70C | 0.19 |
| U19G U37C A92G | 1.21 |
| A69G U97A U133C | 0.97 |
| U2A A36G A111G U132G | 0.08 |
| A5U U57C U122G | 2.15 |
| U49C A59G A96G U97C | 0.52 |
| U100A U102C A126G | 1.14 |
| A18U A23G A95G | 1.34 |
| A4G A59U A96G A116G U127C | 0.56 |
| A11G A18G A51G U132C A135G | 0.51 |
| A11G A78G A116G | 0.14 |
| A55G A68G G75A A86G A126C | 0.11 |
| U12A A62G U102C | 1.84 |
| A56G A96G A140G | 1.79 |
| C42U A56G A78U U131C | 0.47 |
| A13U U43C A62U U108C A116U | 0.02 |
| A13C A47U A51U A98G | 0.56 |
| A5G A18G A51G A68G U103C | 0.97 |
| U39C G65A C85A | 1.26 |
| A55G U87C A90G A91G U102C C105U | 0.07 |

| Variant | self-cleavage |
| --- | --- |
| U2C A11G A90U A110U | 0.82 |
| A24G A33U U37C A66U U130C | 0.8 |
| A24G C32U U49C A64G | 0.86 |
| A11G U39A A54G | 0.76 |
| U43C C105U A116G | 0.08 |
| U3C U26C A78G | 0.32 |
| U2A U43A U131C | 1.13 |
| G8A A54G U100A | 1.14 |
| C25U U39C A51G | 1.95 |
| U9C A22G C81U | 0.53 |
| U39C A60G U108C A126G | 0.01 |
| A11G A92G A95G A98G G138A | 1.11 |
| A5G G44A U122C | 0.76 |
| C35U U70C U108C A116U U130C | 0 |
| A13U U43C U131C | 0.96 |
| G1A A22G A51G A52U U72C A117G | 0.19 |
| A4G A51G U102C A111G | 0.04 |
| U19C A23G A116U U131C | 0.55 |
| U19C A63G A91G A135G | 0.57 |
| A18G U43A U57C A78G A90G | 0.38 |
| G44A G79A U102C U108C U132C | 0 |

| Variant | self-cleavage |
| --- | --- |
| U38C A59G A118G | 0.37 |
| U43C A63G A67G U72C | 0.25 |
| A33G A64G A68G | 0.89 |
| U3C A55G A66G A82G | 0.38 |
| U49C A56G U122G | 1.53 |
| U9C U39C A55G U87C A96G | 0.38 |
| U100C U103G C105G U131C | 0 |
| C16U U38C A68U U72C A95C U132C | 0.15 |
| A13G A18G A23C A91C A118U | 0.07 |
| A11G A56C A60G | 0.59 |
| U43A A62G A89C A92G A111G | 0 |
| A62U G75A A82G U120A | 0.18 |
| A13U A22G A23G U57C | 1.03 |
| U43C A60G A126G | 0.6 |
| A24G G65A A98U U131C A135G | 1.33 |
| A11U A55G G104A A116G U132C | 0.02 |
| G20A C45U A51G A60G | 0.85 |
| A13G A18G U19C A36U A55G | 1.13 |
| A55U A91G U122C | 0.23 |
| G50U A51G A68G U127C | 0.83 |
| A52U A54U A55G A69G A78U U100C A110G | 0.08 |

| Variant | self-cleavage |
| --- | --- |
| A95G A96G U132C | 1.76 |
| U2C U26A A59G U120C | 0.16 |
| A18U A22G A24G A56G C109U | 0.55 |
| A11G U12G A33C A68G C77U U103A | 0.42 |
| A36G A47G A114U | 0 |
| U38A U49C U97G | 1.09 |
| U2C U9A U122A U130C | 1.27 |
| A5G A27U U39C A59U U72C | 0.25 |
| U43C C45U A52U A89G U108C A116G U139C | 0 |
| U3C A33U U122C | 1.24 |
| A47U A91G U108C | 0.02 |
| U57C U72C A95G U108A U127C U139A | 0 |
| A4G U9C A117G U139G A140U | 2.09 |
| A5G A23C A24G | 0.78 |
| A33C U37C A59G | 1.02 |
| A11G A18G A78G | 0.14 |
| U26C A56G U72G A116G | 0.15 |
| A60U A89U U120C | 0.73 |
| G14A A33G U133A | 1.16 |
| A52U A66G A111U U120C U130C | 0.02 |
| U38C A55G A95G U100C | 2.64 |
